Relative growth data for 14 molecules are collected here from the supplement of paper PMC9446081.

Molecules are shown by their SMILES. Screen size: about 39,000 compounds; about 220 (0.56%) showed activity. Some of the results follow.
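Also: static incubation at 37 °C against the wild-type strain, values averaged over two biological replicates.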

This assay concerns Escherichia coli K-12 BW25113. The assay is described as follows: relative growth (OD600 normalised to plate interquartile mean) (fraction); higher = less growth inhibition, active = 0.2 or less. Conditions: 50 µM; LB; incubation time: overnight (16-24 h).
Regarding `COc1ccc(CN(C)C[C@H]2Oc3c(NC(=O)CCCCCC(=O)Nc4ccccc4N)cccc3C(=O)N([C@@H](C)CO)C[C@@H]2C)cc1`, the relative growth was inactive: 0.993.

`OC[C@H]1O[C@H]2O[C@@H]3[C@@H](O)[C@H](O)[C@H](O[C@@H]4[C@@H](O)[C@H](O)[C@H](O[C@@H]5[C@@H](O)[C@H](O)[C@H](O[C@@H]6[C@@H](O)[C@H](O)[C@H](O[C@@H]7[C@@H](O)[C@H](O)[C@H](O[C@@H]8[C@@H](O)[C@H](O)[C@H](O[C@@H]1[C@@H](O)[C@@H]2O)O[C@@H]8CO)O[C@@H]7CO)O[C@@H]6CO)O[C@@H]5CO)O[C@@H]4CO)O[C@@H]3CO`: the relative growth is inactive: 0.999.

Turning to `Cc1noc(C)c1NC(=O)Nc1ccc2c(c1)CC(=O)N([C@@H](C)CO)C[C@H](C)[C@@H](CN(C)C(=O)Nc1ccc(C(F)(F)F)cc1)O2`, the relative growth is inactive: 0.99.

As to `Cc1ccc(S(=O)(=O)Nc2ccc3c(c2)C(=O)N([C@@H](C)CO)C[C@@H](C)[C@H](CN(C)C(=O)c2ccccc2)OCCCC[C@H](C)O3)cc1`, the relative growth was inactive: 1.

For the molecule `C[C@@H]1CCCCO[C@@H](CN(C)Cc2ccc3c(c2)OCO3)[C@@H](C)CN([C@@H](C)CO)C(=O)c2cc(NS(=O)(=O)c3ccc(Cl)cc3)ccc2O1`, the relative growth was inactive: 0.945.

Turning to `Cc1cc2c(cc1S(N)(=O)=O)S(=O)(=O)CCC2`, the relative growth is inactive: 0.972.

`Cc1ccc(S(=O)(=O)Nc2ccc3c(c2)C(=O)N([C@H](C)CO)C[C@@H](C)[C@H](CN(C)S(C)(=O)=O)O3)cc1`: the relative growth was inactive: 0.992.

As for `COc1ccc(CN(C)C[C@H]2OCCCC[C@H](C)Oc3ccc(NS(=O)(=O)c4ccccc4)cc3C(=O)N([C@@H](C)CO)C[C@H]2C)cc1`, the relative growth is inactive: 0.984.

As for `COc1ccccc1CN(C)C[C@H]1OCc2ccccc2-c2c(n(C)c3ccccc23)C(=O)N([C@@H](C)CO)C[C@@H]1C`, the relative growth was inactive: 0.983.

For `C[C@@H]1CCCCO[C@@H](CN(C)C(=O)CCC(F)(F)F)[C@@H](C)CN([C@@H](C)CO)C(=O)c2cc(NC(=O)Nc3ccc4c(c3)OCO4)ccc2O1`, the relative growth was inactive: 0.994.

With `COc1ccc(S(=O)(=O)Nc2cccc3c2O[C@@H](CN(C)S(C)(=O)=O)[C@@H](C)CN([C@@H](C)CO)C3=O)cc1`, the relative growth is inactive: 1.

Take `CC(C)NC(=O)Nc1ccc2c(c1)C(=O)N([C@H](C)CO)C[C@H](C)[C@H](CN(C)C(=O)Nc1ccc(F)cc1)OCCCC[C@@H](C)O2`: the relative growth was inactive: 0.973.

For the molecule `N[C@@H]1CC[C@@H](CCn2cc(C3(O)CCCC3)nn2)O[C@H]1CO`, the relative growth was inactive: 0.99.

With `C[C@H]1CN([C@@H](C)CO)C(=O)c2ccccc2-c2ccccc2CO[C@H]1CN(C)C(=O)Nc1cccc(F)c1`, the relative growth is inactive: 1.02.
